Experimental data taken from PubChem BioAssay AID463173 (ICCB-Longwood Screening Facility, Harvard Medical School, 2010).
Hit rate of the full screen: of about 52,000 compounds, about 4,300 (8.3%) were called active. No stated cut-off is given here; in the data, active means survival mostly below about 52% (no sharp cut-off); inactive means mostly above about 56%. Some of the results follow.

Test system: DeltatarO mutant
Assay: growth inhibition of S. aureus wild type versus tarO mutant, primary screen, teichoic acid synthesis inhibitors, RN4220, OD600 (AID 463173)
Conditions: OD600, 18 h, stronger effect = lower value, screened at 18.75 µg/mL (by protocol)

With `CCCN1CCN(c2cc3c(cc2F)c(=O)c(S(=O)(=O)c2ccc(Cl)cc2)cn3C)CC1` as the compound, how does the survival read?
Its survival is inactive: 75%.

`Cn1c(=O)n(C)c2cc(N3CCOCC3)c(NC(=O)c3c(F)cccc3F)cc21` was tested. Which survival did it give?
The survival was inactive: 97%.

Which survival does the source give for `COc1ccc(C(=O)NCC(c2ccc(N(C)C)cc2)N2CCc3ccccc32)cc1` (centres undefined) here?
Its survival is inactive: 118%.

Which survival does the source give for `Cc1cc(C)c2sc(NC(=O)c3ccc(S(=O)(=O)N4CCOCC4)cc3)nc2c1` here?
The survival was inactive: 101%.

How did the survival turn out when `CC(C)C(=O)N1C2CCC1CC(O)(c1ccccc1F)C2` (centres undefined) was run?
Its survival is inactive: 86%.

`COc1cc(OC)c(NC(=O)Nc2c(C)n(C)n(-c3ccccc3)c2=O)cc1Cl` was tested. Which survival did it give?
Its survival is inactive: 89%.

How did the survival turn out when `CCc1cc2c(-c3ccccc3)cc(=O)oc2c2c1OCN(Cc1ccc(F)cc1)C2` was run?
Its survival is inactive: 60%.

For `O=C(NC1CC(=O)N(c2cccc(F)c2)C1)C(c1ccccc1)c1ccccc1` (centres undefined), which survival is on record?
Its survival is inactive: 74%.

How did the survival turn out when `CCOc1ccc(C2CC(=O)c3c([nH]c(C(=O)OC4CCC(C)CC4)c3C)C2)cc1` (centres undefined) was run?
Its survival is inactive: 87%.

How did the survival turn out when `CCC(=O)Nc1ccc(Cl)cn1` was run?
Its survival is inactive: 96%.

For `COc1ccccc1N1CCN(C(=O)CN2C(=O)COc3ccc(S(=O)(=O)N4CCCC4)cc32)CC1`, which survival is on record?
The survival was inactive: 108%.

With `CCc1cccc(NC(=O)CSc2nc3ccsc3c(=O)n2CC)c1` as the compound, how does the survival read?
Its survival is inactive: 42%.

`Cc1cccc(C=Nc2ccc3[nH]ncc3c2)c1O` was tested. Which survival did it give?
The survival was inactive: 70%.

For `CCc1nc(SCc2cc(=O)c3cc(C)ccc3[nH]2)n[nH]1`, which survival is on record?
The survival was inactive: 67%.

With `Cc1ccc(CNC(=O)Cn2c(=O)n(Cc3ccccc3)c(=O)c3sc4ccccc4c32)cc1` as the compound, how does the survival read?
Its survival is inactive: 76%.

Which survival does the source give for `Cc1ccc(CN(Cc2cccn2-c2nnc(N3CCCC3=O)s2)C(=O)Nc2ccccc2C(F)(F)F)cc1` here?
Its survival is inactive: 101%.

How did the survival turn out when `CC(=O)NC1C(=O)N(CCc2ccccc2)c2ccc(C)cc21` (centres undefined) was run?
Its survival is inactive: 81%.

`O=C(CN1C=NS(=O)(=O)c2ccc(C(F)(F)F)cc21)Nc1cccc(C(F)(F)F)c1` was tested. Which survival did it give?
The survival was inactive: 74%.

How did the survival turn out when `CCOC(=O)c1cc(NC(=O)c2ccc(Cl)cc2)c(=O)n2c1oc1ccccc12` was run?
Its survival is active: 34%.

Which survival does the source give for `O=C(Cn1ncn2nc(-c3cccs3)cc2c1=O)NCc1ccccc1Cl` here?
The survival was inactive: 84%.

For `CC(C)c1ccc(NC(=O)c2ccc(Cn3nc(N4CCN(c5ccccc5)CC4)ccc3=O)o2)cc1`, which survival is on record?
Its survival is inactive: 67%.

For `CCc1ccc(N2C(=O)CSC23C(=O)N(Cc2cccc(OC)c2)c2ccccc23)cc1` (centres undefined), which survival is on record?
Its survival is inactive: 77%.

With `CCn1c(=NC(=O)c2ccc(S(=O)(=O)N3CCCC3)cc2)sc2cc(Br)ccc21` as the compound, how does the survival read?
The survival was inactive: 60%.

For `CCOC(=O)c1c(C)c(-c2ccccc2)n(CC(=O)NC2CCCCCC2)c1C`, which survival is on record?
The survival was inactive: 75%.

Which survival does the source give for `Cc1c(C(=O)N(Cc2cccc(F)c2)C2CCS(=O)(=O)C2)oc2cc(Br)ccc12` (centres undefined) here?
The survival was inactive: 63%.

For `O=c1cc(-c2ccc(F)cc2)nc(SCc2nc(-c3cccc(C(F)(F)F)c3)no2)[nH]1`, which survival is on record?
Its survival is inactive: 99%.

How did the survival turn out when `COc1ccc(NC(=O)CN2C(=O)C3(SCC(=O)N3c3ccccc3)c3ccccc32)cc1Cl` (centres undefined) was run?
Its survival is inactive: 97%.

How did the survival turn out when `CC(C)NC(=O)CC1Sc2ccccc2NC1=O` (centres undefined) was run?
Its survival is inactive: 99%.

For `COc1ccc(CNC(=O)c2cccc(N3CCCS3(=O)=O)c2)cc1OC`, which survival is on record?
Its survival is inactive: 89%.

For `CCc1c(C)sc2c1CCN(C(=O)Nc1cc(C)ccc1OC)C2c1ccc(F)cc1` (centres undefined), which survival is on record?
The survival was inactive: 144%.

With `COc1ccc(-c2c(C)nn3c(N4CCN(c5ccccc5F)CC4)cc(C)nc23)cc1OC` as the compound, how does the survival read?
Its survival is inactive: 69%.

For `O=C(C1CC2c3ccccc3C1c1ccccc12)N1CCOCC1` (centres undefined), which survival is on record?
The survival was inactive: 86%.

For `CCN1CCN(C(c2ccccc2F)c2c(O)cc(C)n(CCOC)c2=O)CC1` (centres undefined), which survival is on record?
The survival was inactive: 73%.

Which survival does the source give for `N#Cc1ccc(NC2=NS(=O)(=O)c3ccccc32)cc1` here?
Its survival is inactive: 68%.

For `CCC(=O)N1CCc2cc(CNS(=O)(=O)c3ccc(Br)s3)ccc21`, which survival is on record?
Its survival is active: 47%.

`Cc1ccc(C)c(N2C(=O)N(C)c3ccccc3S2(=O)=O)c1` was tested. Which survival did it give?
The survival was inactive: 87%.

How did the survival turn out when `COc1ccc(-n2c(C)nc3cc(C(=O)NC4CCCCCC4)ccc32)cc1` was run?
Its survival is inactive: 118%.

For `CCCN(CCC)CCNC(=O)c1sc2nc3n(c(=O)c2c1C)CCCCC3`, which survival is on record?
Its survival is active: 62%.

How did the survival turn out when `CC1CCCN(S(=O)(=O)c2ccc(N3CCCCS3(=O)=O)cc2)C1` (centres undefined) was run?
The survival was inactive: 74%.

Which survival does the source give for `Cc1nn(-c2ccccc2)c(Cl)c1C1N2CCCN1CC2` (centres undefined) here?
Its survival is inactive: 109%.

Which survival does the source give for `C=CCc1ccc(OCc2ccc(C(=O)Nc3ccc(NC(C)=O)cc3)o2)c(OC)c1` here?
The survival was inactive: 121%.

Which survival does the source give for `COc1cccc(NC(=O)Cn2cc(C(=O)c3ccc(F)cc3)c(=O)c3cc(OC)ccc32)c1` here?
Its survival is inactive: 92%.

Which survival does the source give for `O=C(Nc1ccc(NC(=O)C2CCCCC2)nc1)C1CC1` here?
The survival was inactive: 95%.

With `Cc1cccc(Cn2cnc3c(oc4ccccc43)c2=O)c1` as the compound, how does the survival read?
Its survival is inactive: 89%.

With `COc1ccc(-c2cc(OC(=O)c3ccccc3)c3c(C)oc(C)c3c(=O)c2)cc1OC` as the compound, how does the survival read?
Its survival is inactive: 74%.

For `COc1cccc(NC(CNS(=O)(=O)c2ccc(Cl)cc2)c2ccccc2)c1` (centres undefined), which survival is on record?
The survival was inactive: 79%.

`CC(C)c1ccc2c(c1)NC(c1ccncc1)=NC(c1cccs1)=N2` was tested. Which survival did it give?
Its survival is inactive: 72%.

With `CCc1cccc(NC(=O)C(NS(=O)(=O)c2ccc3nc(C)sc3c2)C(C)C)c1` (centres undefined) as the compound, how does the survival read?
Its survival is inactive: 83%.

Which survival does the source give for `C#CCSc1nc(-c2ccccc2)c2cc(Cl)ccc2n1` here?
Its survival is inactive: 51%.

`CCOc1ccccc1NC(=O)CCc1c(C)nc2c(c(C)nn2-c2ccccc2)c1C` was tested. Which survival did it give?
Its survival is inactive: 72%.

For `Cc1ccc(Cl)cc1N1CCN(C(=O)c2ccc3c(c2)N(Cc2ccccc2F)C(=O)c2ccccc2S3=O)CC1` (centres undefined), which survival is on record?
Its survival is inactive: 71%.

Which survival does the source give for `O=C(CCS(=O)(=O)c1cc(Br)cc2c1N(C(=O)C1CC1)CC2)Nc1ccc(F)cc1` here?
Its survival is inactive: 132%.

Which survival does the source give for `Cc1ccc(CNC(=O)c2sc3nc(-c4ccccc4)cn3c2C)cc1` here?
Its survival is inactive: 123%.

`CCN(C(=O)Cn1c(=O)nc(-c2ccccc2)c2cc(Cl)ccc21)c1cccc(C)c1` was tested. Which survival did it give?
The survival was inactive: 79%.

How did the survival turn out when `CCOc1ccc(CCNC(=O)Cn2ncc3c([nH]c4ccccc43)c2=O)cc1OCC` was run?
The survival was inactive: 101%.

`Cc1cncn1CCc1nc2c3ccccc3nc(SCC(=O)Nc3ccc(F)cc3)n2n1` was tested. Which survival did it give?
Its survival is inactive: 101%.

Which survival does the source give for `CCc1cccc(NC(=O)C2CCC(CNS(=O)(=O)c3ccc4c(c3)CCCC(=O)N4)CC2)c1` (centres undefined) here?
The survival was inactive: 93%.

`CC(=O)Nc1nc(C(=O)O)cs1` was tested. Which survival did it give?
Its survival is inactive: 90%.

For `OCCN1CCN(C(c2ccc(Cl)cc2Cl)c2sc3nc(-c4ccco4)nn3c2O)CC1` (centres undefined), which survival is on record?
Its survival is inactive: 85%.

Which survival does the source give for `CCc1nc2ccc(C(=O)NCc3ccc(SC)cc3)cc2nc1CC` here?
The survival was inactive: 69%.

For `Clc1ccccc1-c1nnc(-c2ccccc2CNc2ccc(Br)cc2)o1`, which survival is on record?
Its survival is inactive: 74%.

Which survival does the source give for `CCOc1ccc(-n2c(SCC(=O)Nc3ccc4c(c3)OCCO4)nc3c([nH]c4ccccc43)c2=O)cc1` here?
Its survival is inactive: 117%.

Which survival does the source give for `CCOc1ccc(CCNC(=O)c2cn(-c3cccc(OC)c3)c(=O)c3ccccc23)cc1` here?
Its survival is inactive: 74%.

With `CCC(C)NC(=O)c1ccc2c(c1)N(Cc1ccccc1F)C(=O)c1ccccc1S2=O` (centres undefined) as the compound, how does the survival read?
Its survival is inactive: 64%.

How did the survival turn out when `Cn1c(=O)oc2cc(S(=O)(=O)NCCC(=O)NCc3ccc(F)cc3)ccc21` was run?
The survival was inactive: 91%.

With `Cc1ccc(F)c(NC(=O)C2CCCCC2C(=O)O)c1` (centres undefined) as the compound, how does the survival read?
Its survival is inactive: 70%.

Which survival does the source give for `COc1cc(S(=O)(=O)N2CCCCC2C)c(OC)cc1Cl` (centres undefined) here?
The survival was inactive: 114%.

`O=C(NCc1ccc(F)cc1)c1ccc(Cn2c(SCc3ccc(F)cc3)nc3cccnc32)cc1` was tested. Which survival did it give?
Its survival is inactive: 78%.

With `CCCN1C(=O)c2[nH]nc(-c3cccc(OC)c3)c2C1c1ccccn1` (centres undefined) as the compound, how does the survival read?
The survival was inactive: 82%.

`CC(C)Cn1c(=O)c2ccccc2n2c(CCC(=O)NCc3ccc(Cl)cc3)nnc12` was tested. Which survival did it give?
The survival was inactive: 77%.

Which survival does the source give for `Cn1nnc2c(NCc3ccccc3)ncnc21` here?
Its survival is active: 32%.

`Cc1cc(C)cc(-n2c(C)nc3cc(C(=O)NCc4ccc(F)cc4)ccc32)c1` was tested. Which survival did it give?
The survival was inactive: 90%.

How did the survival turn out when `CC(C)c1ccc(NC(=O)CN2C(=O)COc3ccc(S(=O)(=O)N4CCCCC4)cc32)cc1` was run?
The survival was inactive: 71%.

`Cc1ccc2scc(N3CCc4ccccc4C3)c(=O)c2c1` was tested. Which survival did it give?
Its survival is inactive: 73%.

For `Cc1ccc(C)c(N2CCN(C(=O)Cn3ncc4c(=O)oc5ccccc5c43)CC2)c1`, which survival is on record?
Its survival is inactive: 93%.

`COc1cc(OC)cc(-c2nc3nc(C)c(CCC(=O)Nc4ccc(C)c(C)c4)c(C)n3n2)c1` was tested. Which survival did it give?
Its survival is inactive: 73%.

For `Cc1ccc(CNC(=O)N2CCC(CN3CCC(C)CC3)CC2)cc1`, which survival is on record?
Its survival is inactive: 103%.

Which survival does the source give for `CCN1CCN(Cc2nc3cc(NC(=O)c4cc(OC)c(OC)c(OC)c4)ccc3n2CC)CC1` here?
The survival was inactive: 84%.

Which survival does the source give for `COc1ccc(S(=O)(=O)c2cn(CC(=O)Nc3cc(C)ccc3C)c3ccccc3c2=O)cc1` here?
Its survival is inactive: 86%.

`COc1ccc(S(=O)(=O)n2nc(-c3ccco3)nc2NCc2ccc(N(C)C)cc2)cc1` was tested. Which survival did it give?
Its survival is inactive: 55%.

Which survival does the source give for `COc1ccc(NC(=O)Cn2cnc3sc(C)c(S(=O)(=O)N4CCN(c5ccccc5OC)CC4)c3c2=O)cc1OC` here?
Its survival is inactive: 67%.

`CCC1CN(C(=O)NCc2ccc(C)cc2)c2cc(Cl)ccc2O1` (centres undefined) was tested. Which survival did it give?
Its survival is inactive: 93%.

For `Cc1cc(C)cc(NC(=O)Cn2cc(S(=O)(=O)NC(C)(C)C)c(S(=O)(=O)NC(C)(C)C)c2)c1`, which survival is on record?
Its survival is inactive: 95%.

Which survival does the source give for `CCOc1ccccc1NC(=O)CSc1nnc2[nH]c(=O)cc(-c3ccccc3)n12` here?
Its survival is inactive: 98%.

`O=C(Nc1ccccc1Cl)C1CCN(c2nc3ccccc3nc2C(F)(F)F)CC1` was tested. Which survival did it give?
The survival was inactive: 92%.

With `CCCN1CC=C2C(C#N)=C(N)C(C#N)(C#N)C(C(C)C)C2C1` (centres undefined) as the compound, how does the survival read?
Its survival is inactive: 90%.

`Cn1c(=O)c2c(-c3cccc(Br)c3)n(C(C)(C)CO)cc2n(C)c1=O` was tested. Which survival did it give?
Its survival is inactive: 84%.

With `S=C(NCCCN1CCOCC1)N1CCN(c2ccccc2)CC1` as the compound, how does the survival read?
Its survival is inactive: 84%.

With `COc1cccc(C(=O)N2CCN(CCc3ccncc3)CC2)c1` as the compound, how does the survival read?
The survival was inactive: 87%.
